# Values joined by “and” are separate entries in the source; they are usually repeats but may differ in a detail not shown here. Equal values may be shown once. About 50,000 (12%) of roughly 420,000 compounds were called active. This list was built around the results that the source calls inconclusive (neither active nor inactive); the mix of calls is not that of the screen. The call rests on the fitted dose curve; in most records, active means well fitted inhibition curve with a large enough effect; inconclusive means small, poorly fitted or top-dose-only effect; inactive means flat fitted curve, though single readings scatter. No potency is given beside an inconclusive call; the fits are too rough. Some compounds were tested as several samples or in several runs, with calls that do not always agree.
# Experiment: qHTS for Inhibitors of human tyrosyl-DNA phosphodiesterase 1 (TDP1): qHTS in cells in presence of CPT; further: nearly all actives have a fitted effect of over 55% in size
# Conditions: chicken DT40 Tdp1-/-;hTDP1 cells + 20 nM CPT, ATP luminescence, 48 h; activity change, negative = growth inhibition: at 46.2 µM (top of the series) unless noted
# Method in brief: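 Chicken DT40 Tdp1-/- cells stably complemented with human TDP1 were seeded at 400 cells/well in medium containing 20 nM camptothecin, exposed to pin-transferred compounds, and grown at 37 °C for at least 48 hr. Viability was read as ATP luminescence.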
# On the % scale 0 is the no-effect control and ±100 the full control effect; potency means the concentration at half of the fitted maximal effect; tags describe the fitted curve by direction and shape.
Compound,Potency,"activity change, negative = growth inhibition"
COC(=O)c1ccc(N2C(c3cc(OC)cc(OC)c3)=Cc3ccc(-c4cccnc4)cc3C2CC(=O)C2CC2)cc1 (stereo not given),"inconclusive [inhibitor, single point]",–
CCOC(=O)C1(Cc2cccc(Cl)c2)CCCN(C(=O)c2ccnn2C)C1 (stereo not given),active: 14.6 µM,–
Cc1ccc(S(=O)(=O)NC(=O)C2(C)CCN2C(=O)Cc2ccc(Cl)cc2Cl)cc1 (stereo not given),"inconclusive [inhibitor, partial curve]",–
O=C(CSc1nnc(-c2ccccn2)n1-c1ccccc1)Nc1ccc2c(c1)OCO2,–,inactive: 1.97%
CC(C)c1cccc(-c2csc(C(O)c3ccccc3)n2)c1 (stereo not given),"inconclusive [inhibitor, single point]",–
COc1ccccc1-c1cc(C(=O)N2CCN(c3ccc(F)cc3)CC2)no1,"inconclusive [inhibitor, single point]",–
COc1ccc(NC(=O)c2cc3c([nH]c4ccccc43)c(C)n2)cc1,–,inactive: -3.26%
CCCc1c(C)nc2scc(-c3ccc(Cl)cc3)n2c1=O,–,inactive: -12.2%
CCCNC(=O)C1(C)CCCN(C(=O)C2(c3ccc(Cl)cc3)CCCC2)C1 (stereo not given),"inconclusive [inhibitor, single point]",–
O=C(c1cc(=O)[nH]c2ccccc12)N1CC=C(c2ccccc2)CC1,"inconclusive [inhibitor, single point]",–
CC(C)(C)OC(=O)C[C@@H]1C/C=C\C[C@@H](CC(=O)N(CCO)Cc2ccccc2)C(=O)NC[C@@H](c2ccccc2)OC1=O,active: 20.6 µM,–
Cc1ccc(S(=O)(=O)NCC(c2ccco2)N2CCc3ccccc32)cc1 (stereo not given),–,inconclusive: -33.7% [inhibitor]
COC(=O)c1ccc2nc(-c3ccccc3)c(Cc3ccsc3)n2c1,active: 20.6 µM,–
Cc1ccc(C(=O)N2CCCC2(C)C(=O)NCC(C)C)cc1F (stereo not given),–,inactive: -8.32%
CCCCCn1ccc(=O)c2c(C(F)(F)F)nccc21,active: 13 µM,–
CCCCC[C@@H]1C=C(C(=O)O)[C@H](c2ccc(Cl)cc2)N1S(=O)(=O)c1ccc(C)cc1,"inconclusive [inhibitor, partial curve]",–
COC(=O)N1C(=O)[C@](c2ccc(OC)cc2)(C(C)C)N1C(=O)OC,active: 20.6 µM,–
Cc1ccc(NC(=S)NC2CC3CCCC(C2)N3Cc2ccco2)cc1 (stereo not given),"inconclusive [inhibitor, single point]",–
Cc1ccc(SSc2cc(C)ccc2N)c(N)c1,active: 7.31 µM,–
Cc1c(C(=O)Nc2ccc(F)c(Cl)c2)sc2nc3n(c(=O)c12)CCC3,"inconclusive [inhibitor, single point]",–
O=C(Nc1ccc(F)cc1)c1nc2c(nnn2Cc2cccc3ccccc23)c(=O)[nH]1,"inconclusive [inhibitor, single point]",–
CS(=O)(=O)N1CCC(C(=O)N2CCN(C(c3ccccc3)c3ccccc3)CC2)CC1,"inconclusive [inhibitor, single point]",–
O=c1[nH]c2cc(Cl)c(Br)cc2o1,–,inactive: 6%
COCCN(C(=O)c1snc(C(N)=O)c1N)C(C(=O)NC1CCCCC1)c1ccc(OC)c(OC)c1 (stereo not given),–,inactive: 3.22%

Compound,Potency,"activity change, negative = growth inhibition"
O=[N+]([O-])c1cc(C(F)(F)F)ccc1NCCCCNS(=O)(=O)c1ccc(Cl)cc1,active: 13 µM,–
CC(C)(C)OC(=O)N(CCc1ccccc1)Cc1ccccc1OCc1cccc(NC(=O)/C=C/c2ccccc2)c1,active: 9.2 µM,–
Cc1cc(Br)cnc1NC(=S)Nc1ccc(F)cc1F,–,inactive: -13%
COc1ccc(/C=N/Nc2ccc([N+](=O)[O-])cc2)cc1Cn1cc([N+](=O)[O-])cn1,"inconclusive [inhibitor, single point]",–
C/C(=N\Nc1ncc(Cl)cc1Cl)c1ccc(N2CCOCC2)cc1,"inconclusive [inhibitor, single point]",–
CCCCC(=O)Nc1ccnc(-c2cccnc2)n1,–,inconclusive: -36.9% [inhibitor]
COC(=O)CNC(=O)CN1C(=O)N(c2cccc(Cl)c2)C(N(O)C(=O)Nc2cccc(Cl)c2)C1(C)C (stereo not given),"inconclusive [inhibitor, single point]",–
CN(CC(=O)Nc1ccccc1Br)C(=O)CNC(=O)c1ccc(Oc2ccccc2)cc1,"inconclusive [inhibitor, single point]",–
COc1ccc(-c2cn(Cc3cccc(OC)c3)nn2)cc1,inactive and active: 12.6 µM,–
COCCNC(=O)C(c1ccc(C)o1)N(C(=O)C(=O)NC1CCCCC1)c1ccc(F)cc1 (stereo not given),–,inactive: 7.44%
CCCNC(=O)c1cnn(-c2ccc(C)c(C)c2)c1C1CCN(C(=O)OC(C)(C)C)CC1,"inconclusive [inhibitor, single point]",–
O=C(c1cnn(C(=O)COc2ccc(Cl)cc2)c1)c1ccccc1O,–,inactive: -9.81%
COC(=O)C=C1CCC2C3CCC4=CC(=O)C(Br)CC4(C)C3C(=O)CC12C (stereo not given),"inconclusive [inhibitor, single point]",–
COCCn1c(SCC(=O)c2ccc(C)cc2)nc2cc(C(=O)NC3CCCC3)ccc2c1=O,–,inactive: 5.61%
FC(F)(F)c1cc(Nc2nc3ccccc3c3nncn23)ccc1Cl,active: 23.1 µM,–
Cc1ccc(-n2c(CCc3ccccc3)n[nH]c2=S)cc1C,"inconclusive [inhibitor, single point]",–
O=C(NCCc1ccccc1)C1CCN(c2nc3ccccc3nc2C(F)(F)F)CC1,"inconclusive [inhibitor, single point]",–
COc1ccc(C2=NOC(C(=O)NCc3cccs3)C2)cc1 (stereo not given),active: 5.17 µM,–
CCC(=O)Nc1ccc(NC(=O)CSc2nc3c(c(=O)n(C)c(=O)n3C)n2CC)cc1,"inconclusive [inhibitor, single point]",–
Cc1ccc(C(NC(=O)C2CCN(Cc3ccc(Cl)c(Cl)c3)CC2)c2ccccn2)cc1 (stereo not given),"inconclusive [inhibitor, full curve, poor fit]",–
CN(C)CCNc1ncnc2c1ncn2[C@H]1CN(Cc2ccc3c(c2)OCO3)C[C@@H](CO)O1,–,inactive: -28.8%
CCC(=O)c1cn(CC(=O)OC)c2ccccc12,–,inactive: -24.6%
COC(=O)c1ccc(S(=O)(=O)N(C2CCCCC2)C2CCCCC2)n1C,"inconclusive [inhibitor, single point]",–
CCCCNc1oc(-c2ccc(OC)cc2)nc1S(=O)(=O)c1ccccc1,"inconclusive [inhibitor, partial curve, poor fit]",–

Compound,Potency,"activity change, negative = growth inhibition"
CCCCNC(=O)CCC(=O)Nc1ccc2nc(N3CCC(C)CC3)cc(C)c2c1,"inconclusive [inhibitor, single point]",–
C/C=C/c1cccc(-c2nc(C(=O)N3CCCCC3)cc3c2[C@@H](CCO)N(C(=O)NC(C)C)C3)c1,–,inactive: -3.25%
CN(CC(=O)Nc1cccc(F)c1)C(=O)/C=C/c1ccc(S(=O)(=O)N2CCCCCC2)cc1,"inconclusive [inhibitor, single point]",–
COc1ccc(CNC(=O)CN(Cc2ccc(C)cc2)C(=O)c2csnn2)cc1,–,inactive: -0.489%
CCCCOc1ccc(CSc2nncn2N)cc1,–,inactive: 0.895%
CCOc1ccc(C(C)C)cc1S(=O)(=O)n1nc(C)cc1C,active: 16.4 µM,–
O=C(NCCCN1CCCC1=O)C1CCN(S(=O)(=O)c2cccc(Cl)c2Cl)CC1,–,inactive: -0.0922%
CCc1cc(C(=O)O)c(NC(=O)c2cc(OC)c(OC)c(OC)c2)s1,–,inactive: 3.41%
O=C(C1CC1)N1CCc2cc(Br)cc(S(=O)(=O)Nc3ccc(F)c(F)c3)c21,active: 23.1 µM,–
OC[C@@H]1CN(Cc2ccc3c(c2)OCO3)C[C@H](n2cnc3c(NC4CCC4)ncnc32)O1,"inconclusive [inhibitor, single point]",–
CCn1nc(C)c(CN2CCCC(CO)(Cc3cccc(Cl)c3)C2)c1C (stereo not given),"inconclusive [inhibitor, single point]",–
CN(CC(=O)Nc1ccccc1C(F)(F)F)C(=O)Cc1ccccc1F,–,inactive: -12.4%
COc1cccc(C(=O)NCc2ccc(N3CCN(C(=O)OC(C)(C)C)CC3)cc2)c1,"inconclusive [inhibitor, single point]",–
Cc1ccc2ncnc(NCCC(=O)O)c2c1,"inconclusive [inhibitor, single point]",–
CCOc1ccc(N(CC(=O)NCc2ccccc2OC)S(C)(=O)=O)cc1,"inconclusive [inhibitor, single point]",–
Cc1nn(Cc2ccc(Cl)cc2Cl)c(C)c1NC(=O)C1C2CCC(O2)C1C(=O)O (stereo not given),"inconclusive [inhibitor, single point]",–
Cc1cccc(C)c1-n1nnnc1C(c1ccnc2ccccc12)N(Cc1ccccc1)Cc1ccccc1 (stereo not given),"inconclusive [inhibitor, single point]",–
Cc1ccccc1OCC(=O)N=Nc1c(O)n(C)c2ccccc12,"inconclusive [inhibitor, single point]",–
COc1ccc(C(=O)N2CCCC(CCC(=O)NCc3ccc(F)c(F)c3)C2)cc1F (stereo not given),"inconclusive [inhibitor, single point]",–
O=C(NCC1CCCCC1)c1ccccc1[N+](=O)[O-],"inconclusive [inhibitor, single point]",–
CC(C)CN(CCOc1cccc(N2C(=O)C3=C(CCCC3)C2=O)c1)CC(C)C,"inconclusive [inhibitor, single point]",–
O=C(NCC(c1cccnc1)N1CCN(c2ccccc2)CC1)C1CCCCC1 (stereo not given),"inconclusive [inhibitor, single point]",–
